Test results: PubChem BioAssay AID2546 (National Center for Advancing Translational Sciences (NCATS), 2010)
The campaign covered roughly 310,000 compounds. About 11,000 (3.5%) were called active. Inconclusive results, whose numbers are uncertain, are shown with a selection of clear calls. Calls follow the shape of the dose curve; as a rule, active = well fitted inhibition curve with a large enough effect; inconclusive = small, poorly fitted or top-dose-only effect, or effect the other way; inactive = flat fitted curve, though single readings scatter. Potencies of inconclusive entries are left out as doubtful fits.

Experiment: VP16 counterscreen qHTS for inhibitors of ROR gamma transcriptional activity;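 also: Gal4-VP16 expression switched on by copper sulfate through the metallothionein promoter; nearly all actives have a fitted effect of over 50% in size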
Settings: Drosophila S2 Gal4-VP16 UAS-luciferase, luminescence, 20 h; series mostly up to 53.6 µM
Potency is read from the fitted curve at half-maximal effect; tags tell the direction and shape of the fitted curve.

SMILES	Potency
CCCC12CN3CC(C)(CN(C1)C3c1ccc([N+](=O)[O-])o1)C2=O (stereo unspecified)	inactive
O=C(Oc1c(CN2CCOCC2)cc(Cl)c2cccnc12)c1cccs1	active: 1 µM
CC1CCN(C(=O)CSc2nc(N)c(NC(=O)c3ccccc3)c(=O)[nH]2)CC1	inactive
Cc1ccc(NC(=O)C(c2ccc(Cl)cc2Cl)N2CCCC2)cc1 (stereo unspecified)	inactive
Cc1cc(O)cc(O)c1C(=O)Cc1ccccc1	inconclusive [inhibitor, single point]
CCOC(=O)c1cnc(SCC(=O)Nc2cc(OC)ccc2OC)nc1N	inconclusive [inhibitor, single point]
Cc1c(Cl)c([N+](=O)[O-])nn1CCCC(=O)O	inconclusive [inhibitor, partial curve, poor fit]
COc1cccc(CC(=O)N2CCC(n3nccc3NC(=O)C3CC3)CC2)c1	inconclusive [activator, partial curve]
O=[N+]([O-])c1ccc(NC(=S)NCc2ccc(F)cc2)cc1	inconclusive [inhibitor, single point]
COc1ccccc1-c1nnc(NC(=O)c2ccccc2F)o1	active: 2.82 µM
CCN(CC)S(=O)(=O)c1ccc2oc(SCC3CN=C(c4ccc(OC)cc4)S3)nc2c1 (stereo unspecified)	inconclusive [inhibitor, single point]
Cn1cc(-c2nc3cnc(N4CCNCC4)nc3n(CCC#N)c2=O)c2ccccc21	inconclusive [inhibitor, single point]
COc1ccc(/C=C2\Sc3ccc(C(=O)NCCN4CCCCCC4)cc3N(C)C2=O)cc1	inactive
Cc1cccc(-n2ncc3c(NNC(=O)c4ccco4)ncnc32)c1	active: 7.94 µM
COc1ccc(C2=NN(C(=O)CSc3ncccn3)C(c3ccc(OC)cc3)C2)cc1 (stereo unspecified)	inactive
COc1ccc(Cc2nnc(NC(=O)Cc3cccs3)s2)cc1OC	inconclusive [activator, partial curve]
CS(=O)(=O)c1ccc(C(=O)OCc2nnc(-c3ccccc3)o2)cc1[N+](=O)[O-]	active: 12.6 µM
Cc1cc(NC(=O)c2ccc([N+](=O)[O-])cc2Cl)ccc1NC(=O)c1ccco1	inconclusive [activator, single point]
O=C(O)COc1cccc(/C=C2/SC(=S)N(Cc3ccccc3)C2=O)c1	inactive
CCn1cc(/C=N/NC(=O)COc2cccc3cccnc23)c2ccccc21	inactive
Brc1cccc(-c2nnco2)c1	inconclusive [inhibitor, partial curve, poor fit]
CC(C)ON(C(C(=O)NO)C(C)C)S(=O)(=O)c1ccc(-c2ccccc2)cc1 (stereo unspecified)	inconclusive [inhibitor, single point]
O=C(Nc1cccc(S(=O)(=O)N2CCCCCC2)c1)c1ccc2ccccc2n1	inconclusive [inhibitor, single point]

SMILES	Potency
Fc1cccc(/C=N/Nc2ccccn2)c1	inconclusive [inhibitor, single point]
CCCNC(=O)c1ccc(N2CCC3(CC2)CC(c2cccc(Br)c2)=NO3)c([N+](=O)[O-])c1	inconclusive [inhibitor, single point]
COc1ccc(-c2nn(-c3ccccc3)cc2/C=N/NC(N)=S)cc1OC	active: 1 µM
Cc1ccccc1C(=O)NC(C(=O)Nc1nc2c(s1)CCCC2)C(C)C (stereo unspecified)	active: 20 µM
Cc1ccc2c(c1)c1ncnc(N3CCc4ccccc4C3)c1n2C	inconclusive [inhibitor, single point]
COc1cc(O)c(C(=O)/C=C\c2ccc3c(c2)OCO3)c(OC)c1	inconclusive [activator, single point]
CC(=O)Nc1cccc(C(=O)OCC(=O)c2ccccc2Cl)c1	inconclusive [activator, single point]
COCCn1c(C)cc(C2=NNC(=Nc3ccccc3F)SC2)c1C	inconclusive [inhibitor, full curve]
CC(=O)N1N=C(c2ccc(C(C)(C)C)cc2)OC1(C)C	inconclusive [inhibitor, single point]
COCCNC(=O)c1cc2cc3ccc(OC)cc3nc2o1	inconclusive [activator, full curve, poor fit]
Cc1cccc(C)c1N=C1C(=O)Nc2ccccc21	active: 17.8 µM
COc1ccc(NC(=S)NCc2ccc3c(c2)OCO3)cc1	inconclusive [inhibitor, single point]
Cc1ccc(NC(=O)c2nc(S(=O)(=O)Cc3ccccc3)ncc2Cl)cc1	active: 2.24 µM
CCOC(=O)c1c(C)c(C(=O)Nc2cc(F)ccc2F)c(C)n1C	inactive
COC(=O)C(Cc1ccc(O)cc1)NC(=O)c1ccc2c(c1)OCCO2 (stereo unspecified)	active: 2 µM
CCNc1ccccc(C(=O)/C=C/c2ccc3c(c2)OCO3)c1=O	inconclusive [inhibitor, single point]
Cc1ccccc1NC(=S)NCc1ccc(Cl)cc1	active: 3.98 µM
CCOC(=O)c1c(NC(=O)c2ccco2)n(C2CCCCC2)c2nc3ccccc3nc12	inconclusive [inhibitor, single point]
CC(=O)OCCN(CCCn1c(-c2ccncc2)nc2ccccc21)c1nc(CN2CCCCC2)cs1	inactive
Fc1ccc(-c2cc(-c3ccccc3)nc(-n3cccn3)n2)cc1	inconclusive [inhibitor, single point]
O=C(O)CNC(=O)/C(=C/c1cccc([N+](=O)[O-])c1)NC(=O)c1ccco1	inconclusive [activator, single point]
CCOc1ccc(NC(=S)NC(=O)/C=C/c2ccc(OC)c(OC)c2)c([N+](=O)[O-])c1	active: 2.51 µM
Cc1cccc(C)c1NC(=S)Nc1ccc(F)cc1	inconclusive [inhibitor, single point]
